Drawing on article PMC9911399, “Two distinct binding modes provide the RNA-binding protein RbFox with extraordinary sequence specificity”, this text covers binding signal for 9 molecules.

Changes are numbered by the printed parent chain; changes in the protein carry UniProt numbers. This is one part of the list.

The labels stand for the following.
T1: RBFOX1 RRM (Homo sapiens, UniProt Q9NWB1 109-208)
T1 sequence: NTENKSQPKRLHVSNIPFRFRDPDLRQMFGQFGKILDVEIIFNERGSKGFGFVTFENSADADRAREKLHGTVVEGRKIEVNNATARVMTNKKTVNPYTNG

B1: UUAAGGG (DNA:RNA)
RNA: GGGAGACCGGAAUUCAGAUUGUCCUUAAGGGUUAAAUCCCGUCGUAGCCACCA
DNA 1: CAATCTGAATTCCGGTCTCCC
DNA 2: TGGTGGCTACGACGGGATT
B2: UUCUACC (DNA:RNA)
RNA: B1 RNA with A27C, A28U, G29A, G30C, G31C
DNA 1: CAATCTGAATTCCGGTCTCCC
DNA 2: TGGTGGCTACGACGGGATT
B3: ACUGCUC (DNA:RNA)
RNA: GGGAGACCGGAAUUCAGAUUGUCCACUGCUCUUAAAUCCCGUCGUAGCCACCA
DNA 1: CAATCTGAATTCCGGTCTCCC
DNA 2: TGGTGGCTACGACGGGATT
B4: UCCGUUG (DNA:RNA)
RNA: B3 RNA with A25U, U27C, C29U, C31G
DNA 1: CAATCTGAATTCCGGTCTCCC
DNA 2: TGGTGGCTACGACGGGATT
B5: CGUACGU (DNA:RNA)
RNA: B3 RNA with A25C, C26G, G28A, U30G, C31U
DNA 1: CAATCTGAATTCCGGTCTCCC
DNA 2: TGGTGGCTACGACGGGATT
B6: GGGCGCA (DNA:RNA)
RNA: B1 RNA with U25G, U26G, A27G, A28C, G30C, G31A
DNA 1: CAATCTGAATTCCGGTCTCCC
DNA 2: TGGTGGCTACGACGGGATT
B7: AACAGAC (DNA:RNA)
RNA: B3 RNA with C26A, U27C, G28A, C29G, U30A
DNA 1: CAATCTGAATTCCGGTCTCCC
DNA 2: TGGTGGCTACGACGGGATT
B8: GGCCAGG (DNA:RNA)
RNA: B1 RNA with U25G, U26G, A27C, A28C, G29A
DNA 1: CAATCTGAATTCCGGTCTCCC
DNA 2: TGGTGGCTACGACGGGATT
B9: GGCGGUG (DNA:RNA)
RNA: B3 RNA with A25G, C26G, U27C, C29G, C31G
DNA 1: CAATCTGAATTCCGGTCTCCC
DNA 2: TGGTGGCTACGACGGGATT

The test addresses T1, RBFOX1 RRM. Briefly: EMSA; HiTS-Eq, 1 nM pool, 10 min; buffer printed only for the single-RNA assays: 10 mM Tris pH 7.5, 150 mM NaCl, 3.4 mM EDTA, 0.001% NP-40, 30 C. As to conditions: tags: His6 N-terminal (pET28a); label: 5' 32P. A digest of the protocol:
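Purified RbFox RRM (wild type or mutant) was equilibrated for 10 min in 50 µL with 1 nM of a 5′-radiolabelled pool of RNA with 7 randomized nucleotides, its flanks annealed to DNA oligonucleotides, across increasing protein concentrations. Free RNA was separated by 8% native PAGE, excised, reverse-transcribed, PCR-barcoded and sequenced on an Illumina HiSeq 2500. Relative association constants came from read-count changes of each variant against the control reaction, normalised to the cognate motif.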
(In EMSA bound probe runs differently from free probe, usually more slowly.)
With B1, the binding signal was 0.00125 KA relative to UGCAUGU.
As for B2, the binding signal was 0.00615 KA relative to UGCAUGU.
As for B3, the binding signal was 0.00965 KA relative to UGCAUGU.
As for B4, the binding signal is 0.0195 KA relative to UGCAUGU.
The same measure for B5: 0.0104 KA relative to UGCAUGU; for B6: 0.0231 KA relative to UGCAUGU.
The same measure for B7: 0.00241 KA relative to UGCAUGU; for B8: 0.00693 KA relative to UGCAUGU; for B9: 0.0257 KA relative to UGCAUGU.
